# The list shows a part of the results.
# B1: PfulAvr4 (Pseudocercospora fuligena) (protein)
# chain: HHHHHHDYKDDDDKTYVQDKTPAFVCPAADIKTTKCLGPKDCLYPSPKTCNGYIQCSPADDSYLTGIIHEMPCPSGLLWNDNKKWCDWPENTTCGLVKSAGATEVDATKQGPTPGKYHG
# What was measured:
# Assay in all cases: glycan array binding signal (z-score within array); higher = stronger binding
# Conditions in all cases: glycan notation: IUPAC condensed, linker removed
# [1] = biological target: Gal(b1-3)GlcNAc(b1-2)Man(a1-3)[Gal(b1-3)GlcNAc(b1-2)Man(a1-6)]Man(b1-4)GlcNAc(b1-4)[Fuc(a1-6)]GlcNAc
# In short: (§1)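 Glycan array binding is given as a within-array Z-score, which can be read as non-binding when negative. The arrays, 3228 of them, came from the Consortium for Functional Glycomics database and were retained only where the protein sequence was available. Z-scores were averaged across arrays of the same protein sequence at different concentrations or buffers and across linkers.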
# [2] = biological target: Gal(b1-3)GlcNAc(b1-2)Man(a1-3)[GlcNAc(b1-4)][Gal(b1-3)GlcNAc(b1-2)Man(a1-6)]Man(b1-4)GlcNAc(b1-4)GlcNAc
# In short: as §1
# [3] = biological target: Gal(b1-3)GlcNAc(b1-2)[Gal(b1-3)GlcNAc(b1-6)]Man(a1-6)[Gal(b1-3)GlcNAc(b1-2)Man(a1-3)]Man(b1-4)GlcNAc(b1-4)GlcNAc
# In short: as §1
# [4] = biological target: Gal(b1-3)GlcNAc(b1-3)Gal(b1-3)GlcNAc
# In short: as §1
# [5] = biological target: Gal(b1-3)GlcNAc(b1-3)Gal(b1-4)Glc
# In short: as §1
# [6] = biological target: Gal(b1-3)GlcNAc(b1-3)Gal(b1-4)GlcNAc
# In short: as §1
# [7] = biological target: Gal(b1-3)GlcNAc(b1-3)Gal(b1-4)GlcNAc(b1-2)Man(a1-3)[Gal(b1-3)GlcNAc(b1-3)Gal(b1-4)GlcNAc(b1-2)Man(a1-6)]Man(b1-4)GlcNAc(b1-4)GlcNAc
# In short: as §1
# [8] = biological target: Gal(b1-3)GlcNAc(b1-3)Gal(b1-4)GlcNAc(b1-2)[Gal(b1-3)GlcNAc(b1-3)Gal(b1-4)GlcNAc(b1-6)]Man(a1-6)[Gal(b1-3)GlcNAc(b1-3)Gal(b1-4)GlcNAc(b1-2)Man(a1-3)]Man(b1-4)GlcNAc(b1-4)[Fuc(a1-6)]GlcNAc
# In short: as §1
# [9] = biological target: Gal(b1-3)GlcNAc(b1-3)Gal(b1-4)GlcNAc(b1-3)Gal(b1-4)GlcNAc(b1-2)[Gal(b1-3)GlcNAc(b1-3)Gal(b1-4)GlcNAc(b1-3)Gal(b1-4)GlcNAc(b1-6)]Man(a1-6)[Gal(b1-3)GlcNAc(b1-3)Gal(b1-4)GlcNAc(b1-3)Gal(b1-4)GlcNAc(b1-2)Man(a1-3)]Man(b1-4)GlcNAc(b1-4)[Fuc(a1-6)]GlcNAc
# In short: as §1
# [10] = biological target: Gal(b1-3)GlcNAc(b1-3)Gal(b1-4)GlcNAc(b1-6)[Gal(b1-3)GlcNAc(b1-3)]Gal(b1-4)Glc
# In short: as §1
# [11] = biological target: Gal(b1-3)GlcNAc(b1-3)Gal(b1-4)[Fuc(a1-3)]GlcNAc
# In short: as §1
# [12] = biological target: Gal(b1-3)GlcNAc(b1-3)Gal(b1-4)[Fuc(a1-3)]GlcNAc(b1-6)[Gal(b1-3)GlcNAc(b1-3)]Gal(b1-4)Glc
# In short: as §1
# [13] = biological target: Gal(b1-3)GlcNAc(b1-3)GalNAc
# In short: as §1
# [14] = biological target: Gal(b1-3)GlcNAc(b1-6)Gal(b1-4)GlcNAc
# In short: as §1
# [15] = biological target: Gal(b1-3)GlcNAc(b1-6)GalNAc
# In short: as §1
# [16] = biological target: Gal(b1-3)GlcNAc(b1-6)[Gal(b1-3)]GalNAc
# In short: as §1
# Gal(b1-3)GlcNAc6S = biological target: Gal(b1-3)GlcNAc6S
# In short: as §1
# [17] = biological target: Gal(b1-3)[Fuc(a1-4)]GlcNAc
# In short: as §1
# [18] = biological target: Gal(b1-3)[Fuc(a1-4)]GlcNAc(b1-2)Man
# In short: as §1
# [19] = biological target: Gal(b1-3)[Fuc(a1-4)]GlcNAc(b1-2)Man(a1-3)[Gal(b1-3)[Fuc(a1-4)]GlcNAc(b1-2)Man(a1-6)]Man(b1-4)GlcNAc(b1-4)[Fuc(a1-6)]GlcNAc
# In short: as §1
# [20] = biological target: Gal(b1-3)[Fuc(a1-4)]GlcNAc(b1-3)Gal(b1-3)[Fuc(a1-4)]GlcNAc
# In short: as §1
# [21] = biological target: Gal(b1-3)[Fuc(a1-4)]GlcNAc(b1-3)Gal(b1-4)[Fuc(a1-3)]GlcNAc
# In short: as §1
# [22] = biological target: Gal(b1-3)[Fuc(a1-4)]GlcNAc(b1-6)GalNAc
# In short: as §1
# [23] = biological target: Gal(b1-3)[GlcNAc(b1-6)]GalNAc
# In short: as §1
# [24] = biological target: Gal(b1-3)[Neu5Ac(a2-6)]GalNAc
# In short: as §1
# [25] = biological target: Gal(b1-3)[Neu5Ac(a2-6)]GlcNAc(b1-4)Gal(b1-4)Glc
# In short: as §1
# [26] = biological target: Gal(b1-3)[Neu5Ac(b2-6)]GalNAc
# In short: as §1
# Gal(b1-4)Gal = biological target: Gal(b1-4)Gal
# In short: as §1
# [27] = biological target: Gal(b1-4)GalNAc(a1-3)[Fuc(a1-2)]Gal(b1-4)GlcNAc
# In short: as §1
# [28] = biological target: Gal(b1-4)GalNAc(b1-3)[Fuc(a1-2)]Gal(b1-4)GlcNAc
# In short: as §1
# Gal(b1-4)Glc = biological target: Gal(b1-4)Glc
# In short: as §1
# Gal(b1-4)Glc6S = biological target: Gal(b1-4)Glc6S
# In short: as §1
# Gal(b1-4)GlcNAc = biological target: Gal(b1-4)GlcNAc
# In short: as §1
# [29] = biological target: Gal(b1-4)GlcNAc(a1-6)Gal(b1-4)GlcNAc
# In short: as §1
# Gal(b1-4)GlcNAc(b1-2)Man = biological target: Gal(b1-4)GlcNAc(b1-2)Man
# In short: as §1
# [30] = biological target: Gal(b1-4)GlcNAc(b1-2)Man(a1-3)Man(b1-4)GlcNAc(b1-4)GlcNAc
# In short: as §1
# [31] = biological target: Gal(b1-4)GlcNAc(b1-2)Man(a1-3)[Gal(b1-4)GlcNAc(b1-2)Man(a1-6)]Man(b1-4)GlcNAc(b1-4)GlcNAc
# In short: as §1
# [32] = biological target: Gal(b1-4)GlcNAc(b1-2)Man(a1-3)[Gal(b1-4)GlcNAc(b1-2)Man(a1-6)]Man(b1-4)GlcNAc(b1-4)[Fuc(a1-6)]GlcNAc
# In short: as §1
# [33] = biological target: Gal(b1-4)GlcNAc(b1-2)Man(a1-3)[Gal(b1-4)GlcNAc(b1-2)Man(a1-6)][Gal(b1-4)GlcNAc(b1-4)]Man(b1-4)GlcNAc(b1-4)[Fuc(a1-6)]GlcNAc
# In short: as §1
# [34] = biological target: Gal(b1-4)GlcNAc(b1-2)Man(a1-3)[Gal(b1-4)GlcNAc(b1-2)Man(a1-6)][GlcNAc(b1-4)]Man(b1-4)GlcNAc(b1-4)[Fuc(a1-6)]GlcNAc
# In short: as §1
# [35] = biological target: Gal(b1-4)GlcNAc(b1-2)Man(a1-3)[GlcNAc(b1-2)Man(a1-6)]Man(b1-4)GlcNAc(b1-4)GlcNAc
# In short: as §1
# [36] = biological target: Gal(b1-4)GlcNAc(b1-2)Man(a1-3)[GlcNAc(b1-4)][Gal(b1-4)GlcNAc(b1-2)Man(a1-6)]Man(b1-4)GlcNAc(b1-4)GlcNAc
# In short: as §1
# [37] = biological target: Gal(b1-4)GlcNAc(b1-2)Man(a1-3)[Man(a1-6)]Man(b1-4)GlcNAc(b1-4)GlcNAc
# In short: as §1
# [38] = biological target: Gal(b1-4)GlcNAc(b1-2)Man(a1-6)Man(b1-4)GlcNAc(b1-4)GlcNAc
# In short: as §1
# [39] = biological target: Gal(b1-4)GlcNAc(b1-2)Man(a1-6)[GlcNAc(b1-2)Man(a1-3)]Man(b1-4)GlcNAc(b1-4)GlcNAc
# In short: as §1
binder,measurement,setting,value
B1,glycan array binding signal (z-score),[1],-0.046
same,glycan array binding signal (z-score),[2],0.682
same,glycan array binding signal (z-score),[3],-0.056
same,glycan array binding signal (z-score),[4],-0.09
same,glycan array binding signal (z-score),[5],-0.169
same,glycan array binding signal (z-score),[6],-0.069
same,glycan array binding signal (z-score),[7],-0.139
same,glycan array binding signal (z-score),[8],0.019
same,glycan array binding signal (z-score),[9],-0.044
same,glycan array binding signal (z-score),[10],-0.115
same,glycan array binding signal (z-score),[11],-0.127
same,glycan array binding signal (z-score),[12],-0.139
same,glycan array binding signal (z-score),[13],-0.105
same,glycan array binding signal (z-score),[14],-0.112
same,glycan array binding signal (z-score),[15],-0.145
same,glycan array binding signal (z-score),[16],-0.093
same,glycan array binding signal (z-score),Gal(b1-3)GlcNAc6S,-0.192
same,glycan array binding signal (z-score),[17],-0.112
same,glycan array binding signal (z-score),[18],0.188
same,glycan array binding signal (z-score),[19],0.612
same,glycan array binding signal (z-score),[20],-0.176
same,glycan array binding signal (z-score),[21],-0.13
same,glycan array binding signal (z-score),[22],-0.112
same,glycan array binding signal (z-score),[23],-0.051
same,glycan array binding signal (z-score),[24],0.215
same,glycan array binding signal (z-score),[25],-0.096
same,glycan array binding signal (z-score),[26],-0.046
same,glycan array binding signal (z-score),Gal(b1-4)Gal,-0.141
same,glycan array binding signal (z-score),[27],-0.135
same,glycan array binding signal (z-score),[28],-0.141
same,glycan array binding signal (z-score),Gal(b1-4)Glc,-0.099
same,glycan array binding signal (z-score),Gal(b1-4)Glc6S,-0.056
same,glycan array binding signal (z-score),Gal(b1-4)GlcNAc,-0.091
same,glycan array binding signal (z-score),[29],-0.106
same,glycan array binding signal (z-score),Gal(b1-4)GlcNAc(b1-2)Man,0.067
same,glycan array binding signal (z-score),[30],-0.138
same,glycan array binding signal (z-score),[31],-0.092
same,glycan array binding signal (z-score),[32],-0.059
same,glycan array binding signal (z-score),[33],-0.147
same,glycan array binding signal (z-score),[34],-0.085
same,glycan array binding signal (z-score),[35],-0.095
same,glycan array binding signal (z-score),[36],-0.088
same,glycan array binding signal (z-score),[37],1.71
same,glycan array binding signal (z-score),[38],-0.161
same,glycan array binding signal (z-score),[39],-0.136
